# Measured values taken from article PMC5681660, “Reduced hepatitis B and D viral entry using clinically applied drugs as novel inhibitors of the bile acid transporter NTCP” (Scientific Reports, 2017).
# Where a name gives a salt, the structure may show the parent alone. Read-outs that look alike come from different tables or passages of the source.
# What was measured:
# human NTCP [1] = molecular target: T1, human NTCP (Homo sapiens, UniProt Q14973); test: Screening fluorescent competitive Myrcludex B-FITC binding assay (96-well, 10 µM drug)
# T1 sequence (Q14973 1-349): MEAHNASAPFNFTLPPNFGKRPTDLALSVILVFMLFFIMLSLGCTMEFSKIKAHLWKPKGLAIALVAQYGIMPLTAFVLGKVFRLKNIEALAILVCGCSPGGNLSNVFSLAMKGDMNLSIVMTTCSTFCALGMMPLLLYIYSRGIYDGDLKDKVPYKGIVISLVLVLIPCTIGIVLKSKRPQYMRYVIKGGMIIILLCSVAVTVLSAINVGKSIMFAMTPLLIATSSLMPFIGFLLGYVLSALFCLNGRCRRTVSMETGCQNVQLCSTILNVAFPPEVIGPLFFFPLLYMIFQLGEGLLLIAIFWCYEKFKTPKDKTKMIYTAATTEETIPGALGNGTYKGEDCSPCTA
# human NTCP [2] = molecular target: T1, human NTCP; test: Screening taurocholate uptake assay (96-well, [14C]taurocholate, 10 µM drug); settings: for remaining activity at 10 µM: 10 min, read-out: %NTCP activity
# [3] = screen, 10 µM drug, Myrcludex B-FITC binding
# [4] = 0.5 h, read-out: %NTCP binding, Prestwick library screen, 10 µM drug, Myrcludex B-FITC binding
# [5] = screen, 10 µM drug, [14C]taurocholate uptake
# [6] = Prestwick library screen, 10 µM drug, Myrcludex B-FITC binding
# [7] = Prestwick library screen, 10 µM drug, [14C]taurocholate uptake
# [8] = Prestwick library screen, Myrcludex B-FITC binding, 10 µM drug
SMILES,"remaining activity at 10 µM (human NTCP [1]; 0.5 h, read-out: %NTCP binding) [%]",remaining activity at 10 µM (human NTCP [2]) [%],other results
CCN(CC)CCOC(=O)C(c1ccccc1)c1ccccc1 [Adiphenine hydrochloride],90.4,115,–
C[C@]12CCC(=O)C=C1CC[C@@H]1[C@@H]2C(=O)C[C@]2(C)C(=O)CC[C@@H]12 [Adrenosterone],–,–,%NTCP binding (human NTCP [1]; [3]): 105.605%; %NTCP activity (human NTCP [2]): 49.5258%
CCCSc1ccc2nc(NC(=O)OC)[nH]c2c1 [Albendazole],86.6,37.4,–
C=CC[N@@+]12CC[C@@]34c5ccccc5N5/C=C6/[C@H]7C[C@H]8[C@@]9(CC[N@@+]8(CC=C)C/C7=C/CO)c7ccccc7N(/C=C(/[C@@H](C[C@@H]31)/C(=C\CO)C2)[C@H]54)[C@@H]69.[Cl-].[Cl-] [Alcuronium chloride],–,–,%NTCP binding (human NTCP [1]; [3]): 80.4183%; %NTCP activity (human NTCP [2]): 111.061%
C=C1/C(=C\C=C2/CCC[C@]3(C)[C@@H]([C@H](C)CCCC(C)C)CC[C@@H]23)C[C@@H](O)C[C@@H]1O [Alfacalcidol],85.9,114,–
CC(=O)OCC(=O)[C@H]1CC[C@H]2[C@@H]3CC[C@H]4C[C@H](O)CC[C@]4(C)[C@H]3C(=O)C[C@]12C [Alfadolone acetate],–,101,remaining activity at 10 µM (human NTCP [1]; [4]): 116%
Oc1ncnc2[nH]ncc12 [Allopurinol],84,65,–
Cc1[nH]cnc1CN1CCc2c(c3ccccc3n2C)C1=O [Alosetron hydrochloride],37.2,103,–
C=CCc1ccccc1OCC(O)CNC(C)C (centres unmarked) [Alprenolol hydrochloride],76.1,135,–
CCCCC[C@H](O)/C=C/[C@H]1[C@H](O)CC(=O)[C@@H]1CCCCCCC(=O)O [Alprostadil],79.5,106,–
C=CCSCC1Nc2cc(Cl)c(S(N)(=O)=O)cc2S(=O)(=O)N1 (centres unmarked) [Althiazide],103,101,–
CN(C)c1nc(N(C)C)nc(N(C)C)n1 [Altretamine],91.3,103,–
CCN(CCCc1ccccc1)CCCc1ccccc1.O=C(O)CC(O)(CC(=O)O)C(=O)O [Alverine citrate salt],–,–,%NTCP binding (human NTCP [1]; [3]): 73.4904%; %NTCP activity (human NTCP [2]; [5]): 58.4781%
COC(c1ccccc1)(c1ccccc1)[C@H](Oc1nc(C)cc(C)n1)C(=O)O [Ambrisentan],108,74.3,–
Cl.Nc1c(Br)cc(Br)cc1CNC1CCC(O)CC1 (centres unmarked) [Ambroxol hydrochloride],–,–,%NTCP binding (human NTCP [1]; [6]): 48.8388%; %NTCP activity (human NTCP [2]; [7]): 49.7759%
CC(=O)OCC(=O)[C@@]12OC3(CCCC3)O[C@@H]1C[C@H]1[C@@H]3CCC4=CC(=O)C=C[C@]4(C)[C@@]3(F)[C@@H](O)C[C@@]12C [Amcinonide],59.7,54.6,–
CCN(CC)C(C)C(=O)c1ccccc1 (centres unmarked) [Amfepramone hydrochloride],–,77.3,remaining activity at 10 µM (human NTCP [1]; [4]): 101%
Cc1c(N(C)C)c(=O)n(-c2ccccc2)n1C [Amidopyrine],–,–,%NTCP binding (human NTCP [1]; [3]): 76.5515%; %NTCP activity (human NTCP [2]; [5]): 57.5072%
NCCCNCCSP(=O)(O)O [Amifostine],67.1,60.7,–
NCC[C@H](O)C(=O)N[C@@H]1C[C@H](N)[C@@H](O[C@H]2O[C@H](CN)[C@@H](O)[C@H](O)[C@H]2O)[C@H](O)[C@H]1O[C@H]1O[C@H](CO)[C@@H](O)[C@H](N)[C@H]1O [Amikacin hydrate],–,–,%NTCP binding (human NTCP [1]; [6]): 71.4906%; %NTCP activity (human NTCP [2]; [7]): 116.214%
N=C(N)NC(=O)c1nc(Cl)c(N)nc1N [Amiloride hydrochloride dihydrate],123,109,–
Nc1c2ccccc2nc2ccccc12 [Aminacrine],88.6,79.5,–
NCCCCCC(=O)O [Aminocaproic acid],79.9,80.2,–

SMILES,"remaining activity at 10 µM (human NTCP [1]; 0.5 h, read-out: %NTCP binding) [%]",remaining activity at 10 µM (human NTCP [2]) [%],other results
Nc1ccc(C(=O)NCC(=O)O)cc1 [Aminohippuric acid],114,70.9,–
"c1ccc(CNc2ncnc3[nH]cnc23)cc1 [Aminopurine, 6-benzyl]",–,–,%NTCP binding (human NTCP [1]; [3]): 57.1397%; %NTCP activity (human NTCP [2]; [5]): 126.176%
CCCCc1oc2ccccc2c1C(=O)c1cc(I)c(OCCN(CC)CC)c(I)c1 [Amiodarone hydrochloride],50.7,37.4,–
CN(C)CCCO[C@@H]1[C@H]2OC(C)(C)O[C@H]2O[C@@H]1[C@H](O)CO [Amiprilose hydrochloride],86.9,111,–
CCN1CCCC1CNC(=O)c1cc(S(=O)(=O)CC)c(N)cc1OC (centres unmarked) [Amisulpride],88,102,–
CN(C)CCC=C1c2ccccc2CCc2ccccc21.Cl [Amitryptiline hydrochloride],–,–,%NTCP binding (human NTCP [1]; [8]): 108.742%; %NTCP activity (human NTCP [2]): 157.363%
CCN(CC)Cc1cc(Nc2ccnc3cc(Cl)ccc23)ccc1O.Cl.Cl.O.O [Amodiaquin dihydrochloride dihydrate],–,–,"%NTCP binding (human NTCP [1]; [8]): 59.2411%; %NTCP activity (human NTCP [2]; Prestwick library screen, [14C]taurocholate uptake, 10 µM drug): 64.7001%"
CCC(C)(C)c1ccc(CC(C)CN2C[C@@H](C)O[C@@H](C)C2)cc1 (some centres unmarked) [Amorolfine hydrochloride],89.3,78,–
Clc1ccc2c(c1)C(N1CCNCC1)=Nc1ccccc1O2 [Amoxapine],86.5,57.7,–
CCOC(=O)OC(C)OC1=C(C(=O)Nc2ccccn2)N(C)S(=O)(=O)c2ccccc21 (centres unmarked) [Ampiroxicam],56.3,99.6,–
Cc1c(N)c(=O)n(-c2ccccc2)n1C [Ampyrone],89.5,95.4,–
Nc1cc(-c2ccncc2)c[nH]c1=O [Amrinone],69.9,70,–
O=C1CN2Cc3c(ccc(Cl)c3Cl)N=C2N1 [Anagrelide],70.1,76.7,–
CC(C)(C#N)c1cc(Cn2cncn2)cc(C(C)(C)C#N)c1 [Anastrozole],88.7,91.7,–
COc1ccc(-c2cc(=S)ss2)cc1 [Anethole-trithione],–,68.9,"remaining activity at 10 µM (human NTCP [1]; 0.5 h, read-out: %NTCP binding, Prestwick library screen, Myrcludex B-FITC binding, 10 µM drug): 76.1%"
COc1ccc(C(=O)N2CCCC2=O)cc1 [Aniracetam],–,115,"remaining activity at 10 µM (human NTCP [1]; 0.5 h, read-out: %NTCP binding, screen, 10 µM drug, Myrcludex B-FITC binding): 83.2%"
c1ccc(CN(CC2=NCCN2)c2ccccc2)cc1 [Antazoline hydrochloride],86.7,44.5,–
CN[C@@H]1[C@@H](O[C@H]2O[C@H](CO)[C@@H](N)[C@H](O)[C@H]2O)OC2C[C@@H](N)[C@@H](O[C@H]3[C@H](O)[C@@H](O)[C@H](N)C[C@@H]3N)OC2[C@@H]1O (some centres unmarked) [Apramycin],85.4,73.7,–
OC[C@H]1O[C@@H](Oc2ccc(O)cc2)[C@H](O)[C@@H](O)[C@@H]1O [Arbutin],108,92.7,–
CC1CNc2c(cccc2S(=O)(=O)N[C@@H](CCCNC(=N)N)C(=O)N2CC[C@@H](C)C[C@@H]2C(=O)O)C1 (some centres unmarked) [Argatroban],80,116,–
O=C1CCc2ccc(OCCCCN3CCN(c4cccc(Cl)c4Cl)CC3)cc2N1 [Aripiprazole],79.6,83.6,–
C[C@@H]1CC[C@H]2[C@@H](C)C(=O)O[C@@H]3O[C@@]4(C)CC[C@@H]1[C@]32OO4 [Artemisinin],74.9,61.4,–
CCCNC(C)C(=O)Nc1c(C)csc1C(=O)OC (centres unmarked) [Articaine hydrochloride],83.8,80.1,–
